Source: publication PMC6853952, “MUC4-ErbB2 Oncogenic Complex: Binding studies using Microscale Thermophoresis” (Scientific Reports, 2019)

Target: T1, recombinant human ErbB2-Fc chimera (human, UniProt P04626 part only)
T1 construct: ErbB2 receptor tyrosine kinase, human; extracellular domains, lacks the TM and CT part; Described as a disulfide-linked homodimeric protein; In the reverse model it was labelled on its 6His-tag with RED-tris-NTA dye (not covalent); also called recombinant ErbB2
Test: MST; normal model, optimised conditions: MPer lysate with the eGFP fusion kept constant around 33 nM, Fc protein titrated 1:1 in PBS with 0.05% P20 from 1 µM to 0.05 nM; 80% MST power, MST-on 30 s; blue LED
Conditions: one partner purified

B1: eGFP-PD-1 (non-relevant eGFP fusion protein) (natural protein)
chain: [in this place about 150 residues]VGVVGGLLGSLVLLVWVLAVICSRAARGTIGARRTGQPLKEDPSAVPVFSVDYGELDFQWREKTPEPPVPCVPEQTEYATIVFPSGMGTSSPARRGSADGPRSAQPLRPEDGHCSWPL
notes: PD-1; source: cell lysate containing the eGFP-fused protein
With B1 the Kd was greater than 20 µM.
